Data published in publication PMC6274018, “Design, Synthesis and Biological Evaluation of Novel Benzothiazole Derivatives as Selective PI3Kβ Inhibitors” (Molecules, 2016).
pIC50: −log10 of the molar value. Blank lines part the entries; values can stand above or below the compound they belong to.

Tests used:
[1] = biological target: T1, PI3Kβ (Homo sapiens, UniProt P42338); assay: ADP-Glo Lipid Kinase Assay, PI3Kβ; assay type: biochemical; settings: for inhibition at 1 µM: compound concentration 1 μM, read-out: % Inhib. of PI3Kβ kinase at 1 μM
T1 construct: purchased Promega Corporation #V1691
T1 sequence (P42338 whole entry): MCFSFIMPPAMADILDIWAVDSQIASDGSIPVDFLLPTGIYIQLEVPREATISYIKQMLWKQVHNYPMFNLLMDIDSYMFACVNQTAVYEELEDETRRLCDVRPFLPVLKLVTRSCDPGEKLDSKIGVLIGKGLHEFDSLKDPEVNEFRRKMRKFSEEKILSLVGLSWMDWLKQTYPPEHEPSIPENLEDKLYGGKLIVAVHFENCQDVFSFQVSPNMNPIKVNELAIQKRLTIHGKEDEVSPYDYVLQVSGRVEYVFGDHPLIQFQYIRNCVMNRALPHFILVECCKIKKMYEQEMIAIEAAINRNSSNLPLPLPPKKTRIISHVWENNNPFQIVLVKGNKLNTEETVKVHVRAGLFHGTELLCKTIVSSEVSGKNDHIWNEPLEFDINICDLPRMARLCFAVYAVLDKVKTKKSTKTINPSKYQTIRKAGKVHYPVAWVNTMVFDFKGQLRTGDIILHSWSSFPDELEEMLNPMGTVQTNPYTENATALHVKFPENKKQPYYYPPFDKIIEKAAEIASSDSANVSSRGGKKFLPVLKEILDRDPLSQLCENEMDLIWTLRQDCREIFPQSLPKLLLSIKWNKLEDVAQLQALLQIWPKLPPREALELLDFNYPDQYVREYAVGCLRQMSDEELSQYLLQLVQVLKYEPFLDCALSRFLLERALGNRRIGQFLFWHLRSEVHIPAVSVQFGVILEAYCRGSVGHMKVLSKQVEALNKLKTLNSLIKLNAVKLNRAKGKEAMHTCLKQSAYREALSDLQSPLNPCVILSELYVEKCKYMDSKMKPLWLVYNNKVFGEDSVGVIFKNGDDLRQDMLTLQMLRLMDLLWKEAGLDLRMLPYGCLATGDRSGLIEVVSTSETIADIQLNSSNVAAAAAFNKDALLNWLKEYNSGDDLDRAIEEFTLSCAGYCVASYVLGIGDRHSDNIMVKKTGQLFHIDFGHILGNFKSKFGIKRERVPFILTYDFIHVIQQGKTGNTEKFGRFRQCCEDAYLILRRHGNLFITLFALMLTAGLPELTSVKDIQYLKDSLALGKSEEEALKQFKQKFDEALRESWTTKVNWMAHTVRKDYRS
T1 sequence (P27986 whole entry partner): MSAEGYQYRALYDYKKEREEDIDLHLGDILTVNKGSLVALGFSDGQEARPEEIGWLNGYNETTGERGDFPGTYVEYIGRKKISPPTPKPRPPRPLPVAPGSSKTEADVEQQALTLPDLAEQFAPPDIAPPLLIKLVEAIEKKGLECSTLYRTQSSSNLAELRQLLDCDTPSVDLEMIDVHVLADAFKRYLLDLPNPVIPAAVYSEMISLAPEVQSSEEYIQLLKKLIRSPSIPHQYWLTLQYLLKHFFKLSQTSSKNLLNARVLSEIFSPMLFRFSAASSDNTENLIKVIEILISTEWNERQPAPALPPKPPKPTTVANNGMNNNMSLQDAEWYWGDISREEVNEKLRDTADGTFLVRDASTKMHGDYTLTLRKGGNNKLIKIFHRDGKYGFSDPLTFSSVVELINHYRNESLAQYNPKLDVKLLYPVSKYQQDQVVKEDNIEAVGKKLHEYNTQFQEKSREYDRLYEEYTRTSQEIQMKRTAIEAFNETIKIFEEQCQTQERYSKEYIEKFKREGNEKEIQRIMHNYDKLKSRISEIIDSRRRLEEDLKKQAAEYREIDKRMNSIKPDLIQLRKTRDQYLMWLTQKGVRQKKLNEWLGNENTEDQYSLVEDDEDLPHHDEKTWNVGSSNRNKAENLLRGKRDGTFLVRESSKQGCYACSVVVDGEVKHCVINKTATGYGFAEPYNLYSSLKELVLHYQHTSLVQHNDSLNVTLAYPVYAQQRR

[2] = test system: SW-620 cells; assay: Anti-proliferative MTS assay, SW-620; assay type: cell-based; settings: Homo sapiens, 72 h exposure
Experimental: (§1) All new synthesized compounds in this paper were screened for their anti-proliferative activity by MTS assay. A549, MCF7, SKOV3, AGS, MES-SA, HepG2, SW-620, PC-3, DU145 and MRC5 cells in this paper were all purchased from American Type Culture Collection (ATCC, Manassas, VA, USA), and were seeded into 96-well plates and cultured for 24 h. Subsequently, these cells were exposed to serial concentrations of compound for 72 h. Cells were then washed with PBS and fixed with CellTiter 96® (Promega) aqueous one solution reagent at 37°C for 3 h. Finally, record the absorbance at 490 nm using a 96-well plate reader. […] All of the compounds were tested two times in each of the cell lines and the results expressed as inhibition rates or IC50 (inhibitory concentration 50%) were the averages of two determinations.

[3] = test system: AGS cells; assay: Anti-proliferative MTS assay, AGS; assay type: cell-based; settings: Homo sapiens, 72 h exposure
Experimental: as §1

[4] = test system: HepG2 cells; assay: Anti-proliferative MTS assay, HepG2; assay type: cell-based; settings: Homo sapiens, 72 h exposure
Experimental: as §1

[5] = test system: MCF7 cells; assay: Anti-proliferative MTS assay, MCF7; assay type: cell-based; settings: Homo sapiens, 72 h exposure
Experimental: as §1

[6] = test system: SKOV3 cells; assay: Anti-proliferative MTS assay, SKOV3; assay type: cell-based; settings: Homo sapiens, SK-OV-3, 72 h exposure
Experimental: as §1

[7] = test system: PC-3 cells; assay: Anti-proliferative MTS assay, PC-3; assay type: cell-based; settings: Homo sapiens, prostate tumor cells, 72 h exposure
Experimental: as §1

[8] = test system: A549 cells; assay: Anti-proliferative MTS assay, A549; assay type: cell-based; settings: Homo sapiens, 72 h exposure
Experimental: as §1

[9] = test system: MRC5 cells; assay: Anti-proliferative MTS assay, MRC5; assay type: cell-based; settings: human normal cell, 72 h exposure
Experimental: as §1

[10] = test system: MES-SA cells; assay: Anti-proliferative MTS assay, MES-SA; assay type: cell-based; settings: Homo sapiens, 72 h exposure
Experimental: as §1

[11] = test system: DU145 cells; assay: Anti-proliferative MTS assay, DU145; assay type: cell-based; settings: Homo sapiens, DU-145, prostate tumor cells, 72 h exposure
Experimental: as §1

[12] = biological target: T2, mTOR (Homo sapiens, UniProt P42345); assay: mTOR enzyme assay (LANCE ultra TR-FRET); assay type: biochemical; settings: average of two determinations
T2 construct: purchased Invitrogen

[13] = biological target: PI3Kα (Homo sapiens, UniProt P42336); assay: ADP-Glo kinase assay, PI3Kα
UniProt P42336, sequence (P42336 whole entry): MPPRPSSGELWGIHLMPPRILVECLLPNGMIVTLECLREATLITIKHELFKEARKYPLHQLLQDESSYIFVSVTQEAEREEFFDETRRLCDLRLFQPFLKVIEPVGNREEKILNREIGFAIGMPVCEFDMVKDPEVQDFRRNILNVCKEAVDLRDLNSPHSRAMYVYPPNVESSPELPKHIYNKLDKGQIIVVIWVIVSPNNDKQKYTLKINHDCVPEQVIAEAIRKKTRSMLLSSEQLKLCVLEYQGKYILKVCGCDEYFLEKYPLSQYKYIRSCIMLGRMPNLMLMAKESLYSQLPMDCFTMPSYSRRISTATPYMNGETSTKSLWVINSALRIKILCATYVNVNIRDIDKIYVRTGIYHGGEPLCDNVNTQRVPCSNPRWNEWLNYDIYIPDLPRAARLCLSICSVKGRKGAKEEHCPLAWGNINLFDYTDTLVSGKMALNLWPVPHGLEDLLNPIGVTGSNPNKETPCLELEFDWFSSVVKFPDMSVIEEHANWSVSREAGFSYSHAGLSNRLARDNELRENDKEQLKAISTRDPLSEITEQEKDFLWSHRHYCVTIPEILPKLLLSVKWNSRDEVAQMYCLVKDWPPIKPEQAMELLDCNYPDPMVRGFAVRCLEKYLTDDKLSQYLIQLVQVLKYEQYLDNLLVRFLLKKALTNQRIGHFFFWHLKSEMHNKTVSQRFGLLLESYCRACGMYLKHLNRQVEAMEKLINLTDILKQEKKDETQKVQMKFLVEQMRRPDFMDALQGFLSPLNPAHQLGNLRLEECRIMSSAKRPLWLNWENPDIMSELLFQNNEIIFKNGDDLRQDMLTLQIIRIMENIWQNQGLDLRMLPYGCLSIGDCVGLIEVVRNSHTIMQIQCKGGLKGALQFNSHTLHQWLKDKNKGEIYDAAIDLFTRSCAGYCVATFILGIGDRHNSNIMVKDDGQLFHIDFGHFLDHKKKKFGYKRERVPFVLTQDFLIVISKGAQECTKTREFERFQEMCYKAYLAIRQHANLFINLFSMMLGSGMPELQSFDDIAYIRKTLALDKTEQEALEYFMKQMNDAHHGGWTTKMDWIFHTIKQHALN
UniProt P42336, sequence (P27986 whole entry partner): as the sequence (P27986 whole entry partner) above

[14] = biological target: T3, PI3Kδ (Homo sapiens, UniProt O00329); assay: ADP-Glo kinase assay, PI3Kδ; assay type: biochemical; settings: average of two determinations
T3 construct: purchased Promega Corporation #V1691
T3 sequence (O00329 whole entry): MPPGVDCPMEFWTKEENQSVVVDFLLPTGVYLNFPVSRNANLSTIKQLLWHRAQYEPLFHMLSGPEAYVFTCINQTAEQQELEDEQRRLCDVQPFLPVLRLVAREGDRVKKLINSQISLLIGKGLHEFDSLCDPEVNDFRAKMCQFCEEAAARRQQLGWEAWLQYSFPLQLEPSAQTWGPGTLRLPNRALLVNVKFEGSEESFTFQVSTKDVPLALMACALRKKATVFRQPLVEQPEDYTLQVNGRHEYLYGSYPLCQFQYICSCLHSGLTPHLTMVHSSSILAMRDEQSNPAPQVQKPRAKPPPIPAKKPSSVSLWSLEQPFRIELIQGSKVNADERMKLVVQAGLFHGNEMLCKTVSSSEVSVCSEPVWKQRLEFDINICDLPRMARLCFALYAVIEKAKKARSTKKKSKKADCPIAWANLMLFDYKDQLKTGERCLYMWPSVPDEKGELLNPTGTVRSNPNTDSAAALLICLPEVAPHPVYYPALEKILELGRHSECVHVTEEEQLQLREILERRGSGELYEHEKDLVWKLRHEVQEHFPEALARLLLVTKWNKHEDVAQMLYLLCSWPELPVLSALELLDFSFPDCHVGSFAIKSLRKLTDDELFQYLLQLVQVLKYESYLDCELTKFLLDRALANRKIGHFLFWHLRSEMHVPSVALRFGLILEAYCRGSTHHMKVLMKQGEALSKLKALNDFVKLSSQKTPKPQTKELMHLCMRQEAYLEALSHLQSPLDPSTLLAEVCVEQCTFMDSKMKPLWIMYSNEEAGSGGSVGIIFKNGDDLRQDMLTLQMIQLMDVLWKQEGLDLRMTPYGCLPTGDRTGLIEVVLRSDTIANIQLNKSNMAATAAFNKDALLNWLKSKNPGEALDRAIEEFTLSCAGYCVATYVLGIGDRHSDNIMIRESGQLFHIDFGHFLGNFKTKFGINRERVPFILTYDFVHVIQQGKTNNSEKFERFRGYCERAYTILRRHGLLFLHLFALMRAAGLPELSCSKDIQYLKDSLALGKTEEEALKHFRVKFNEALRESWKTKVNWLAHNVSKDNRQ
T3 sequence (P27986 whole entry partner): as the sequence (P27986 whole entry partner) above

[15] = biological target: T4, PI3Kγ (Homo sapiens, UniProt P48736); assay: ADP-Glo kinase assay, PI3Kγ; assay type: biochemical; settings: average of two determinations
T4 construct: purchased Promega Corporation #V1691
T4 sequence (P48736 whole entry): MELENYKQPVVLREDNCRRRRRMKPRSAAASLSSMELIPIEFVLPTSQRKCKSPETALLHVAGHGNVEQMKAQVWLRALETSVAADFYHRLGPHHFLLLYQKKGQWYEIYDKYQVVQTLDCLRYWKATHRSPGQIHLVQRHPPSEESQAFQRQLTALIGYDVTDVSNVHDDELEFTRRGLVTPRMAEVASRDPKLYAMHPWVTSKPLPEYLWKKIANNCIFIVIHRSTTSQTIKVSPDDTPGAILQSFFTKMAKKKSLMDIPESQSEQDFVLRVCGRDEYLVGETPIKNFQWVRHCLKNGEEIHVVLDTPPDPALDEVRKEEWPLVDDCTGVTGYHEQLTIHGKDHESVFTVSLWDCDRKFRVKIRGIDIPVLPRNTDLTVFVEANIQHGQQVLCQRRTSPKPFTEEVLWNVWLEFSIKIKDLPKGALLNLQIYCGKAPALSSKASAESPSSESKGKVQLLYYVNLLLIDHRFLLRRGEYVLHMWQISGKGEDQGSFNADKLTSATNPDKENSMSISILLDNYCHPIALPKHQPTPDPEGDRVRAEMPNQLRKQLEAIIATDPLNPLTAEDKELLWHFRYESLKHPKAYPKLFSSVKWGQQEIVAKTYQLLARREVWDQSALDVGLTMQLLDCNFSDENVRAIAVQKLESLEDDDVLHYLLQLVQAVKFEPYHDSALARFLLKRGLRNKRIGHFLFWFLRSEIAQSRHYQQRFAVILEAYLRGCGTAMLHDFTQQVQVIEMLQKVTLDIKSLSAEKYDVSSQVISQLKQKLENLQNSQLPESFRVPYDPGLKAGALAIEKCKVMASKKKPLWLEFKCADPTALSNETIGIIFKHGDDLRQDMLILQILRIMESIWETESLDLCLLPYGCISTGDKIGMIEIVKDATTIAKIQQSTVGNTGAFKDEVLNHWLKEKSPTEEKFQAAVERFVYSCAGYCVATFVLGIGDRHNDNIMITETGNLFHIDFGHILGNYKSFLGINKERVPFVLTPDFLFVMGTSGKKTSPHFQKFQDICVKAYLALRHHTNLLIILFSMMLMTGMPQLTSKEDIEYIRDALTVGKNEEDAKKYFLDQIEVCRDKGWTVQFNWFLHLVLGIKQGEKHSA

SMILES: CCNC(=O)Nc1ccc(-c2cc(N3CCOCC3)c3nc(N4CCOCC4)sc3c2)cc1 [Compound 1, 1-(4-(2,4-Dimorpholinobenzo[d]thiazol-6-yl)phenyl)-3-ethylurea]
inhibition at 1 µM [1]: 52.1% | melting point: 256 to 260 °C

SMILES: CCNC(=O)Nc1ccc(-c2cc(N3CCOCC3)c3nc(N4CCN(C(C)C)CC4)sc3c2)cc1 [Compound 3, 1-Ethyl-3-(4-(2-(4-isopropylpiperazin-1-yl)-4-morpholinobenzo[d]thiazol-6-yl)phenyl)urea]
inhibition at 1 µM [1]: 11.7% | melting point: 200 to 202 °C

SMILES: CNC(=O)Nc1ccc(-c2cc(N3CCOCC3)c3nc(N4CCOCC4)sc3c2)cc1 [Compound 8, 1-(4-(2,4-Dimorpholinobenzo[d]thiazol-6-yl)phenyl)-3-methylurea]
inhibition at 1 µM [1]: 27.2% | pIC50 [2]: < 4.00 | pIC50 [3]: < 4.00 | pIC50 [4]: 5.01 | pIC50 [5]: 4.94 | pIC50 [6]: 4.69 | pIC50 [7]: 4.60 | melting point: 274 to 278 °C | pIC50 [8]: 5.12 | pIC50 [9]: 4.45 | pIC50 [10]: < 4.00 | pIC50 [11]: 4.76

SMILES: CCNC(=O)Nc1ccc(-c2cc(N3CCOCC3)c3nc(N4CCCCC4)sc3c2)cc1 [Compound 4, 1-Ethyl-3-(4-(4-morpholino-2-(piperidin-1-yl)benzo[d]thiazol-6-yl)phenyl)urea]
inhibition at 1 µM [1]: 17.6% | melting point: 228 to 231 °C

SMILES: O=C(Nc1ccc(-c2cc(N3CCOCC3)c3nc(N4CCOCC4)sc3c2)cc1)Nc1cccnc1 [Compound 11, 1-(4-(2,4-Dimorpholinobenzo[d]thiazol-6-yl)phenyl)-3-(pyridin-3-yl)urea]
pIC50 [12]: 4.40 | pIC50 [5]: 6.44 | pIC50 [13]: 5.27 | pIC50 [8]: 5.46 | pIC50 [9]: 4.48

SMILES: O=C(Nc1ccc(-c2cc(N3CCOCC3)c3nc(N4CCOCC4)sc3c2)cc1)NC1CC1 [Compound 5, 1-Cyclopropyl-3-(4-(2,4-dimorpholinobenzo[d]thiazol-6-yl)phenyl)urea]
inhibition at 1 µM [1]: 10.2%

More lines, main results first:

inhibition at 1 µM [1]: 22.5% | pIC50 [2]: 4.08 | pIC50 [3]: 4.42 | pIC50 [4]: < 4.00 | pIC50 [5]: < 4.00 | pIC50 [6]: 4.45 | pIC50 [7]: 4.37 | melting point: 214 to 216 °C | pIC50 [8]: 4.49 | pIC50 [11]: 4.41
SMILES: CN1CCN(c2ccc(NC(=O)Nc3ccc(-c4cc(N5CCOCC5)c5nc(N6CCOCC6)sc5c4)cc3)cc2)CC1 [Compound 9, 1-(4-(2,4-Dimorpholinobenzo[d]thiazol-6-yl)phenyl)-3-(4-(4-methylpiperazin-1-yl)phenyl)urea]
pIC50 [9]: < 4.00 | pIC50 [10]: 4.12

inhibition at 1 µM [1]: 15%
SMILES: O=C(NCc1ccccc1)Nc1ccc(-c2cc(N3CCOCC3)c3nc(N4CCOCC4)sc3c2)cc1 [Compound 6, 1-Benzyl-3-(4-(2,4-dimorpholinobenzo[d]thiazol-6-yl)phenyl)urea]

inhibition at 1 µM [1]: 37.7% | pIC50 [2]: < 4.00 | pIC50 [3]: 4.44 | pIC50 [4]: 4.80 | pIC50 [5]: 4.85 | pIC50 [6]: 4.72 | pIC50 [7]: 4.85 | melting point: 244 to 247 °C | pIC50 [8]: 5.43 | pIC50 [11]: 4.64
SMILES: O=C(Nc1ccc(-c2cc(N3CCOCC3)c3nc(N4CCOCC4)sc3c2)cc1)Nc1ccc(F)cc1F [Compound 7, 1-(2,4-Difluorophenyl)-3-(4-(2,4-dimorpholinobenzo[d]thiazol-6-yl)phenyl)urea]
pIC50 [9]: 4.55 | pIC50 [10]: 5.19

pIC50 ([1]; average of two determinations): 6.92 | inhibition at 1 µM [1]: 75.9% | pIC50 [12]: < 4.30 | pIC50 [2]: 5.27 | pIC50 [3]: 5.75 | pIC50 [4]: 5.57 | pIC50 [5]: 6.12 | pIC50 [6]: 6.20 | pIC50 [7]: 5.24 | pIC50 [13]: < 4.30 | pIC50 [8]: 4.07 | pIC50 [14]: 4.82 | pIC50 [15]: < 4.30 | pIC50 [11]: 5.53
SMILES: O=C(Nc1ccc(CO)cc1)Nc1ccc(-c2cc(N3CCOCC3)c3nc(N4CCOCC4)sc3c2)cc1 [Compound 10, 1-(4-(2,4-Dimorpholinobenzo[d]thiazol-6-yl)phenyl)-3-(4-(hydroxymethyl)phenyl)urea]
pIC50 [9]: 5.92 | pIC50 [10]: 6.14
